From PubChem BioAssay AID2546 (National Center for Advancing Translational Sciences (NCATS), 2010)
The campaign covered roughly 310,000 compounds. About 11,000 (3.5%) were called active. The inconclusive results got no clear call from the source; some entries with a clear call stand among them for comparison. Calls come from the whole dose curve; as a rule, active = well fitted inhibition curve with a large enough effect; inconclusive = small, poorly fitted or top-dose-only effect, or effect the other way; inactive = flat fitted curve, though single readings scatter. No potency is given beside an inconclusive call; the fits are too rough.

Test: VP16 counterscreen qHTS for inhibitors of ROR gamma transcriptional activity;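 note: Gal4-VP16 expression switched on by copper sulfate through the metallothionein promoter; nearly all actives have a fitted effect of over 50% in size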
Settings: Drosophila S2 Gal4-VP16 UAS-luciferase, luminescence, 20 h; activity, negative = inhibition: at 53.6 µM (top of the series)
% is set by controls: 0 for no effect and ±100 for the full control effect; potency is the fitted concentration of half-maximal effect; tags give direction and shape of the fitted curve.

| SMILES | Potency | activity, negative = inhibition |
| --- | --- | --- |
| COc1ccc(C(=O)NCCSc2ccccn2)cc1 | inconclusive [inhibitor, single point] |  |
| N#Cc1ccccc1NC(=O)COc1c(Br)cc(Br)c2cccnc12 | inconclusive [inhibitor, single point] |  |
| CN(Cc1cccc(Cl)c1)C(=O)C1CSC2(C)CCC(=O)N12 (stereo unspecified) |  | inactive: 12.1% |
| CCCOc1ccccc1NC(=O)/C=C/C(N)=O | active: 4.47 µM |  |
| CCC(C)C1NC(=O)C(Cc2ccc(O)cc2)NC(=O)C(N)CSSCC(C(=O)N2CCCC2C(=O)NC(CC(C)C)C(=O)NCC(N)=O)NC(=O)C(CC(N)=O)NC(=O)C(CCC(N)=O)NC1=O (stereo unspecified) | inactive |  |
| Cc1ccc(C(=O)CNc2ccc(Cl)cc2)cc1 | inconclusive [inhibitor, single point] |  |
| CC(=O)c1c(C)[nH]c(C(=O)COC(=O)C2CC2)c1C | inconclusive [activator, partial curve] |  |
| COc1ccc(CCNS(=O)(=O)c2csc(C(N)=O)c2)cc1OC |  | inactive: 5.29% |
| Cc1cc(C(C)(C)C)cc(C)c1Cn1c2[n+](c3ccc(C(F)(F)F)cc31)CCCCC2 | inconclusive [inhibitor, partial curve] |  |
| c1cc(SSc2ccncc2)ccn1 |  | inactive: -13.8% |
| CN(C)c1ccc(/C=N/n2c(COc3ccccc3)n[nH]c2=S)cc1 | active: 3.98 µM |  |
| Cc1ccc(N2C(=O)CC(Sc3ccccc3C(=O)O)C2=O)cc1C (stereo unspecified) | inconclusive [inhibitor, single point] |  |
| Cc1ccc(-c2csc3n[nH]c(=S)n23)cc1 | active: 8.91 µM |  |
| O=C(C1=C[C@H](c2ccc3c(c2)OCO3)C[C@H](OCc2ccc(CO)cc2)O1)N1CCOCC1 |  | inactive: -1.75% |
| COC(=O)Cn1c(=NC(=O)c2sc3ccccc3c2Cl)sc2cc(S(N)(=O)=O)ccc21 | inconclusive [inhibitor, partial curve] |  |
| COc1ccc(-c2cc3ccccc3n2CC(O)CN2CCCCC2)cc1 (stereo unspecified) |  | inactive: -0.0069% |
| COc1ccc(-c2nnc3n2N=C(c2ccc(OC)c(OC)c2)CS3)c(OC)c1 |  | inactive: -1.46% |
| Cc1nn(C)c(-c2n[nH]c(=S)n2Cc2ccco2)c1Cl | inconclusive [inhibitor, single point] |  |
| CCn1cc(C(=O)O)c(=O)c2cc(F)c(N3CCN(C(=S)NC(=O)c4ccc(F)cc4)CC3)cc21 | active: 3.98 µM |  |
| COc1ccc(NC(=O)c2nc[nH]c2C(=O)NCC(=O)OC(C)(C)C)cc1 | inconclusive [inhibitor, single point] |  |
| COCC(=O)N1CCC2(CC1)CN(Cc1ccc(C#N)cc1)C2 |  | inactive: 9.43% |
| COc1ccc(C(=O)NCc2ccc3c(c2)OCO3)cc1S(=O)(=O)N(C)Cc1ccccc1 |  | inactive: -19.8% |
| CC(=O)Nc1ccc(-c2csc(-c3cccnc3)n2)cc1 | inconclusive [activator, full curve, poor fit] |  |
| Cc1ccc(C)c(OC(C)C(=O)Nc2nccs2)c1 (stereo unspecified) | inconclusive [inhibitor, single point] |  |
| CC(C)=CCC[C@](C)(O[C@@H]1O[C@H](CO)[C@@H](O)[C@H](O)[C@H]1O)[C@H]1CC[C@]2(C)[C@@H]1[C@H](O)C[C@@H]1[C@@]3(C)CC[C@H](O[C@@H]4O[C@H](CO)[C@@H](O)[C@H](O)[C@H]4O[C@@H]4O[C@H](CO)[C@@H](O)[C@H](O)[C@H]4O)C(C)(C)[C@@H]3[C@@H](O)C[C@]12C |  | inactive: 1.69% |
| CN=C1NN=C(c2cc(C)n(-c3c(C)n(C)n(-c4ccccc4)c3=O)c2C)CS1 | inconclusive [inhibitor, single point] |  |

| SMILES | Potency | activity, negative = inhibition |
| --- | --- | --- |
| O=C1CC(C2CCCO2)C(=O)N1c1ccc(Cl)c(Cl)c1 (stereo unspecified) | active: 11.2 µM |  |
| C/C(=N\Nc1ccc([N+](=O)[O-])cc1[N+](=O)[O-])C(C)(C)C(C(=O)O)C(=O)O |  | inactive: 11% |
| COc1ccc(C2=CC(c3ccc(Cl)cc3)n3cnnc3N2)cc1OC (stereo unspecified) | inconclusive [inhibitor, single point] |  |
| COc1ccccc1/C=C/C(=O)Nc1ccc2c(c1)CCC2 |  | inactive: -1.77% |
| CCn1c(C)nc2cc(C(=O)NNC(=S)Nc3ccccc3Cl)ccc21 | active: 20 µM |  |
| CCS(=O)(=O)N1CCC(C(=O)Oc2ccccc2)CC1 |  | inactive: 5.21% |
| COc1cc(C(=O)Nc2cc(C)ccn2)ccc1OCC(=O)N1CCOCC1 |  | inactive: -0.0963% |
| CCCCOC(=O)Oc1ccc2c(=O)c(Oc3cccc(C)c3)coc2c1 | inconclusive [inhibitor, single point] |  |
| Oc1c(N=NC(=S)Nc2ccccc2F)c2ccccc2n1Cc1ccccc1 | active: 3.55 µM |  |
| O=C(COC(=O)CCCOc1ccc(Cl)cc1Cl)NCc1ccc(F)cc1 | inconclusive [inhibitor, single point] |  |
| O=C(NNc1nc2c(F)cc(F)cc2s1)c1ccccc1 | inconclusive [inhibitor, single point] |  |
| O=C1CCC(C(=O)NCCN2C(=O)S/C(=C\c3cccnc3)C2=O)=NN1 |  | inactive: -13.1% |
| Cn1c(SCC(=O)N2CCN(c3ccccc3)CC2)nnc1-c1c[nH]c2ccccc12 | inconclusive [inhibitor, single point] |  |
| COc1ccc(/C=C/c2nc3cc(-c4ccccc4)ccc3o2)cc1O | inconclusive [inhibitor, partial curve, poor fit] |  |
| CSc1ccc(S(=O)(=O)Nc2ccc3c4c(cccc24)CC3)cc1 | inconclusive [inhibitor, single point] |  |
| CCCCN(CC)Cc1ccc(CNC(=S)Nc2cccc(F)c2)o1 | inconclusive [inhibitor, full curve, poor fit] |  |
| COCCC(=O)N1CCc2c([nH]c3ccccc23)C1C(C)(C)C (stereo unspecified) |  | inactive: 3.52% |
| O=C1C(Nc2ccccc2)=CC(=O)c2ncccc21 | active: 4.47 µM |  |
| N#C/C(=C(/O)COC(=O)c1cccnc1Cl)c1nc2ccccc2[nH]1 | inconclusive [inhibitor, single point] |  |
| O=C1CCc2cc(S(=O)(=O)N3CCC(C(=O)NC4CCCC4)CC3)ccc2N1 |  | inactive: 6.19% |
| O=c1c2c([nH]c3ccccc13)CCCCC2 | active: 17.8 µM |  |
| CCCCCCCCNc1nc(Cl)nc(NCc2ccco2)n1 | inconclusive [activator, single point] |  |
| Oc1ccc(C(=S)N2CCN(c3cccc(Cl)c3)CC2)cc1 |  | inactive: -7.38% |
| COCCCNC(=S)NC(=O)c1ccc([N+](=O)[O-])cc1 | active: 17.8 µM |  |
| CC(=O)Nc1ccc(S(=O)(=O)NC2CC3CCC2C3)cc1 (stereo unspecified) |  | inactive: 0.952% |
| O=C(NC1=C(Nc2ccc(F)cc2)C(=O)c2ccccc2C1=O)c1ccc(Cl)cc1 | inconclusive [inhibitor, single point] |  |

| SMILES | Potency | activity, negative = inhibition |
| --- | --- | --- |
| Cc1ccc(C)c(NC(=S)Nc2ncccc2C)c1 | inconclusive [inhibitor, single point] |  |
| COc1cccc(C(=O)Nc2ccc(C)cc2)c1 | inconclusive [inhibitor, single point] |  |
| COc1cccc(CN(C)CC(=O)Nc2cc3oc4ccccc4c3cc2OC)c1 |  | inactive: -0.228% |
| CCOc1ccc2ccccc2c1CNCCN1CCOCC1 |  | inactive: 1.46% |
| CCCc1cc(-c2n[nH]c(=S)n2Cc2ccccc2)cs1 | inconclusive [inhibitor, full curve] |  |
| COc1ccccc1CCn1c(=O)cnc2cncnc21 |  | inactive: -6.77% |
| O=C(N/N=C/c1cccnc1)c1ccco1 | inconclusive [activator, full curve, poor fit] |  |
| CCOc1ccc(N2CC(C(=O)Nc3ccccc3C(=O)NC3CC3)CC2=O)cc1 (stereo unspecified) |  | inactive: 14.4% |
| O=C(NC(=S)NNC(=O)[C@H]1C[C@@H]1c1ccccc1)c1cccc(F)c1 | inconclusive [inhibitor, partial curve] |  |
| COC(=O)c1ccccc1NC1=C/C(=N\S(=O)(=O)c2cccs2)c2ccccc2C1=O | inconclusive [inhibitor, single point] |  |
| CC(=O)c1cccc(OCc2cc(C(=O)N3CC4C[C@@H]5CC3C[C@H](C4)C5)no2)c1 | inconclusive [inhibitor, single point] |  |
| CC(C)(C)NS(=O)(=O)c1ccc(NC(=O)C2CC(=O)N(CCc3ccc(F)cc3)C2)cc1 (stereo unspecified) |  | inactive: 6.37% |
| C=C1C=CS(=O)(=O)N(Cc2ccccc2)C1 | inconclusive [inhibitor, single point] |  |
| CCSc1nnc(NC(=O)c2ccc3c(c2)OCO3)s1 | inconclusive [activator, single point] |  |
| Cc1ccc2nc(N3CCC(C(=O)NC4CCCCC4)CC3)sc2c1 |  | inactive: 2.41% |
| CCOC(=O)CSc1nc2ccc(NC(=O)CSc3nnnn3Cc3ccccc3)cc2s1 |  | inactive: -8.65% |
| Cc1cc(C)c(OCC(=O)N(Cc2ccccc2)C2CCS(=O)(=O)C2)c(C)c1 (stereo unspecified) |  | inactive: 17.2% |
| Cc1ccc(N(CC(=O)NCc2ccc(F)cc2)S(=O)(=O)c2cccs2)cc1 |  | inactive: 0.585% |
| O=C(c1ccncc1)N1CCN(C2CCC(c3ccccc3)CC2)CC1 (stereo unspecified) |  | inactive: -5.91% |
| O=C(NC(=S)N1CCOCC1)C12CC3CCC(CC(C3)C1)C2 | active: 6.31 µM |  |
| COc1ccc(Oc2ccc(NC(=O)c3ccccc3C)cc2)cc1 |  | inactive: -0.117% |
| Cc1cccc(C)c1NC(=O)c1nc(S(=O)(=O)Cc2ccccc2)ncc1Cl | active: 5.01 µM |  |
| COc1cc(NC(=S)NC(=O)c2cccs2)ccc1NC(=O)C(C)C | inconclusive [inhibitor, single point] |  |
| CCCCc1n[nH]c(=S)n1Cc1ccccc1 | active: 15.8 µM |  |
